In patent publication US20220356221A1 (ASKGENE PHARMA, published 2022):

Biological target: human IL-12 receptor on HEK-Blue IL-12 reporter cells (human, UniProt P42701 24-662; Q99665 24-862)
Assay: cell-based or functional assay

- EC50 in the cell-based IL-12 reporter assay (HEK-Blue IL-12, STAT4-inducible SEAP, OD630): ~900 pM
B1: IL-12 prodrug JR3.105.5 (prior to protease treatment) (Fc fusion)
chain 1: DKTHTCPPCPAPELLGGPSVFLFPPKPKDTLMISRTPEVTCVVVDVSHEDPEVKFNWYVDGVEVHNAKTKPREEQYASTYRVVSVLTVLHQDWLNGKEYKCKVSNKALPAPIEKTISKAKGQPREPQVYTLPPCRDELTKNQVSLWCLVKGFYPSDIAVEWESNGQPENNYKTTPPVLDSDGSFFLYSKLTVDKSRWQQGNVFSCSVMHEALHNHYTQKSLSLSPGAGGGGSGGGGSGGGGSIWELKKDVYVVELDWYPDAPGEMVVLTCDTPEEDGITWTLDQSSEVLGSGKTLTIQVKEFGDAGQYTCHKGGEVLSHSLLLLHKKEDGIWSTDILKDQKEPKNKTFLRCEAKNYSGRFTCWWLTTISTDLTFSVKSSRGSSDPQGVTCGAATLSAERVRGDNKEYEYSVECQEDSACPAAEESLPIEVMVDAVHKLKYENYTSSFFIRDIIKPDPPKNLQLKPLKNSRQVEVSWEYPDTWSTPHSYFSLTFCVQVQGKSKREKKDRVFTDKTSATVICRKNASISVRAQDRYYSSSWSEWASVPCSGGGGSGGGGSGGGGSRNLPVATPDPGMFPCLHHSQNLLRAVSNMLQKARQTLEFYPCTSEEIDHEDITKDKTSTVEACLPLELTKNESCLNSRETSFITNGSCLASRKTSFMMALCLSSIYEDLKMYQVEFKTMNAKLLMDPKRQIFLDQNMLAVIDELMQALNFNSETVPQKSSLEEPDFYKTKIKLCILLHAFRIRAVTIDRVMSYLNAS
chain 2: [sequence of human IgG1 Fc with changes not given]GGGGSGGGGSGPLGVRGGGGSDIQMTQSPSSLSASVGDRVTITCRASQGISSWLAWYQQKPEKAPKSLIYAASSLQSGVPSRFSGSGSGTDFTLTISSLQPEDFATYYCQQYNIYPYTFGQGTKLEIKGGGGSGGGGSGGGGSGGGGSEVQLVQSGAEVKKPGESLKISCKGSGYSFTTYWLGWVRQMPGKGLDWIGIMSPVDSDIRYSPSFQGQVTMSVDKSITTAYLQWNSLKASDTAMYYCARRRPGQGYFDFWGQGTLVTVSS
